Data as given in PubChem BioAssay AID1030 (National Center for Advancing Translational Sciences (NCATS), 2008).
Out of some 220,000 compounds screened, about 16,000 (7.3%) were called active. This list was built around the results that the source calls inconclusive (neither active nor inactive); the mix of calls is not that of the screen. Calls come from the whole dose curve; as a rule, active = well fitted inhibition curve with a large enough effect (not every such curve was filed as active); inconclusive = small, poorly fitted or top-dose-only effect, or another doubt; inactive = no such curve, though single readings can be large or run the other way. No potency is given beside an inconclusive call; the fits are too rough.

The compounds below were run against Aldehyde dehydrogenase 1A1 (Homo sapiens) (UniProt P00352) (assay: qHTS Assay for Inhibitors of Aldehyde Dehydrogenase 1 (ALDH1A1)). Conditions: Purified ALDH1A1, NADH fluorescence, propionaldehyde substrate; series mostly up to 75.3 µM; activity, negative = inhibition: at the top concentration.
UniProt P00352, sequence (P00352 whole entry, looked up): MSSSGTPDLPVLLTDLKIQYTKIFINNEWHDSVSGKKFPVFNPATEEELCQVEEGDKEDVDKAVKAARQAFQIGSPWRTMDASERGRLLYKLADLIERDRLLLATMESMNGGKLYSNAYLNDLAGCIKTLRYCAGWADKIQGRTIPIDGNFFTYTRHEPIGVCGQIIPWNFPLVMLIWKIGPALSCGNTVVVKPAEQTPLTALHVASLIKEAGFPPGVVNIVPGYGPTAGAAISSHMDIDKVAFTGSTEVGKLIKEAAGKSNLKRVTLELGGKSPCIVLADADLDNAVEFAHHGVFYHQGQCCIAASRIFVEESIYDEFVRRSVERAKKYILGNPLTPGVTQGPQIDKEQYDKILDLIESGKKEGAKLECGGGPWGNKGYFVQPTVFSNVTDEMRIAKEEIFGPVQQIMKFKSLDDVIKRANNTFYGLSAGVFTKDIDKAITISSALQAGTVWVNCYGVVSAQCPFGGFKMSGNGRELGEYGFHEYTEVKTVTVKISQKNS
Potency is the fitted concentration of half-maximal effect; tags give direction and shape of the fitted curve.
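Throughout, for activity, negative = inhibition: plate controls were no enzyme wells and a reference inhibitor.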

| SMILES | Potency | activity, negative = inhibition |
| --- | --- | --- |
| O=C(Nc1ccc2c(c1)oc1ccccc12)c1ccncc1 | inconclusive [inhibitor, partial curve, poor fit] | – |
| CCCCC(=O)c1c(O)c2ccccc2oc1=O | – | inactive: -4.78% |
| Cc1ccnc(N2CCC(C(=O)Nc3nnc(C)s3)CC2)n1 | inconclusive [inhibitor, single point] | – |
| O=C(NC(=S)N1CCN(c2nc(-c3ccccc3)cs2)CC1)c1cccnc1 | – | inactive: -5.84% |
| CCC(=O)Nc1cccc2c1C(=O)N(C)C2=O | – | inactive: -10% |
| COc1cccc(/C=N/n2c(-c3n[nH]c4c3CCC4)n[nH]c2=S)c1O | inconclusive [inhibitor, single point] | – |
| COC(=O)c1ccccc1NC(=O)CN1C(=O)c2ccccc2S1(=O)=O | active: 25.1 µM | – |
| CCOC(=O)/C(C#N)=C/c1cccc([N+](=O)[O-])c1 | inconclusive [inhibitor, single point] | – |
| Cc1ccc(C(=O)CSc2nnc(-c3ccc4[nH]c(C)c(C)c4c3)o2)cc1C | active: 1.41 µM | – |
| Cc1noc(C)c1COC(=O)c1cccc(S(=O)(=O)N2CCCCCC2)c1 | inconclusive [inhibitor, single point] | – |
| O=C(CSc1nnc(Cc2ccc(Cl)cc2)o1)Nc1ccccc1 | inconclusive [inhibitor, single point] | – |
| COc1ccc(CN2CCN(C(=O)C3CCC(CNS(=O)(=O)c4ccc(C)cc4)CC3)CC2)c(OC)c1OC (configuration not stated) | active: 20 µM | – |
| COc1cc(C(=O)NCCC(=O)NC(C)C)cc(OC)c1OC | – | inactive: -3.95% |
| Cc1ccc(NC(=O)C2C3C=CC4(CN(Cc5cccnc5)C(=O)C24)O3)cc1F (configuration not stated) | inconclusive [inhibitor, single point] | – |
| COCCn1nnnc1CN1CCC(NC(=O)c2ccc(Br)cc2)CC1 | – | inactive: 5.25% |
| Cc1ccc(S(=O)(=O)Nc2ccc(NC(=O)Nc3ccc(F)cc3F)cc2)cc1 | – | inactive: -6.76% |
| COC(=O)c1ccc(-c2ccc(/C=N/NC(=O)CC3(C)OCCCO3)o2)cc1 | inconclusive [inhibitor, partial curve] | – |
| CC1C(C#N)=C(N)OC2=C1C(=O)CC(c1ccccc1)C2 (configuration not stated) | inconclusive [inhibitor, single point] | – |
| CCNc1ncc2nc(-c3ccccc3)c(=O)n(C[C@H]3CCCO3)c2n1 | inconclusive [inhibitor, partial curve] | – |
| CCN1CCN(C(=O)CCNC(=O)Cn2ccc3ccccc3c2=O)CC1 | inconclusive [inhibitor, single point] | – |
| CN(CCn1ccnc1)Cc1cn(-c2ccccc2)nc1-c1ccc2c(c1)OCO2 | inconclusive [inhibitor, single point] | – |
| COC(=O)CNC(c1ccccc1)c1cc(Br)ccc1NC(C)=O (configuration not stated) | – | inactive: 11.8% |
| COC(=O)C1=C(C)N(Cc2ccccc2)[C@]23O[C@](C(=O)OC)(C(=O)N2C1c1ccccc1)C1CCOC(=O)C13 (some centres not stated) | – | inactive: 12.2% [at 13.5 µM] |
| CCOc1ccc(CC(=O)N2CCN(c3ccc(N4CCOCC4)nn3)CC2)cc1OCC | inconclusive [inhibitor, partial curve] | – |

| SMILES | Potency | activity, negative = inhibition |
| --- | --- | --- |
| CC(C)Cn1cc(C(=O)NCCCOC(C)C)c2c3ccccc3n(C)c2c1=O | inconclusive [inhibitor, partial curve] | – |
| Cc1cc(/C=C2/C(=N)N3C(=NC2=O)SN=C3S(C)(=O)=O)c(C)n1-c1ccc(F)cc1 | active: 28.2 µM | – |
| CCOC(=O)CSc1nnc(NC(=O)c2cccc([N+](=O)[O-])c2)s1 | – | inactive: -4.64% |
| COc1ccc(C(=O)NCc2nnc(SCC(=O)Nc3nnc(C)s3)o2)cc1 | inconclusive [inhibitor, single point] | – |
| CCOC(=O)c1ccc(NC(=O)CSc2nccn2C)cc1 | inconclusive [inhibitor, single point] | – |
| Cc1nc2c(cnn2-c2ccccc2Cl)c(=O)n1-c1ccc(C(C)C)cc1 | inconclusive [inhibitor, single point] | – |
| CN(Cc1cccs1)C(=O)Cc1c[nH]c2ccccc12 | – | inactive: 3.39% |
| CCOC(=O)C1CCN(c2ncnc3c2c(-c2ccccc2)cn3-c2ccc(C)cc2)CC1 | inconclusive [inhibitor, single point] | – |
| CC(C)c1ccc2c(c1)C1Cc3ccccc3C1N2 (configuration not stated) | inconclusive [inhibitor, partial curve] | – |
| Cc1[nH][nH]c(=O)c1C(c1ccc(-c2ccc(F)cc2)o1)c1c(C)[nH][nH]c1=O | active: 25.1 µM | – |
| Cc1cc(=O)n2nc(-c3ccc(C(F)(F)F)cc3)sc2n1 | – | inactive: -2.39% |
| C/C(=N/OCC(=O)Nc1ccc(C)cc1C)c1cccs1 | – | inactive: 19.7% |
| Cc1ccc(S(=O)(=O)NC(=O)NCCCCNC(=O)NS(=O)(=O)c2ccc(C)cc2)cc1 | – | inactive: 10.6% |
| O=C(NCN1C(=O)C2C3C=CC(C3)C2C1=O)OC1CCCCC1 (configuration not stated) | – | inactive: 2.94% |
| CCN1c2ccccc2-c2nc3ccccc3n2C1c1cccnc1 (configuration not stated) | inconclusive [inhibitor, partial curve] | – |
| Cc1cc(NC(=O)CSc2nnc(N)s2)c([N+](=O)[O-])cc1C | inconclusive [inhibitor, single point] | – |
| O=c1c2cnn(-c3ccc(F)cc3)c2ncn1Cc1ccccn1 | – | inactive: 4.51% |
| Cc1ccc(C(=O)n2nc(-c3ccco3)nc2N)cc1 | inconclusive [inhibitor, partial curve] | – |
| O=C(CC1Sc2ccccc2NC1=O)Nc1cccc(-c2nnc3n2CCCCC3)c1 (configuration not stated) | – | inactive: -0.651% |
| CC(C)CNC(=O)c1ccccc1NC(=O)CCSc1ccccc1 | inconclusive [inhibitor, single point] | – |
| CCn1c(SCC(=O)C(C)(C)C)nnc1-c1ccccc1OC | inconclusive [inhibitor, single point] | – |
| CCCn1c(-c2ccc(F)cc2)nc2c(NCCN(C(C)C)C(C)C)nc(C)nc21 | inconclusive [inhibitor, partial curve] | – |
| O=C1c2ccccc2S(=O)(=O)N1CC1CC(c2ccc(Cl)cc2)=NO1 (configuration not stated) | active: 5.62 µM | – |
